This note sets out measurements from the supplement of paper PMC12217912.

The list shows a part of the results. Sequences were assembled here from the parent chain. Inactive controls read about 0.05.

B1: TEV protease; numbered along this chain (parent)
chain: MGESLFKGPRDYNPISSSICHLTNESDGHTTSLYGIGFGPFIITNKHLFRRNNGTLVVQSLHGVFKVKDTTTLQQHLVDGRDMIIIRMPKDFPPFPQKLKFREPQREERICLVTTNFQTKSMSSMVSDTSCTFPSGDGIFWKHWIQTKDGQCGSPLVSTRDGFIVGIHSASNFTNTNNYFTSVPKNFMELLTNQEAQQWVSGWRLNADSVLWGGHKVFMVKPEEPFQPVKEATQL

In this assay the parent is B1. Kind of assay: raw area under fraction-flipped curve 0-4 h after induction (AUC4h, not background-subtracted), DNA-recorder readout of cleavage of the substrate (dimensionless); higher = more cleavage of the substrate by the protease variant. The note with it: temperature: 34 °C; time window: 0-4 h after rhamnose induction. Here is the method:
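In vivo DNA recorder in E. coli TOP10(DE3) ΔrhaA at 34 °C. Each TEVp single-site mutant (parent TEVp 0) is paired with a single-site variant of the 7-mer TEVs (canonical ENLYFQ|S). The substrate sits between flexible linkers in a Bxb1-sfGFP-TEVs-SsrA fusion, so cleavage stabilises Bxb1 and speeds flipping of a recombination array, read by NGS. The value is the raw area under the fraction-flipped curve over 0-4 h after rhamnose induction (AUC4h), with ≥20 reads per time point. It is not background-subtracted; inactive controls average about 0.047.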
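Also: Bxb1 expression induced with 0.2% (w/v) L-rhamnose at OD600 near 0.5, cultures sampled hourly, flipped fraction per protease–substrate barcode pair counted by paired-end Illumina sequencing.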

Turning to MGESLFKGPRDYNPISSSICHLTNESDGHTTSLYGIGFGPFIITNKHLFRRNNGTLVVQSLHGVFKVKDTTTLQQHLVDGRDMIIIRMPKDFPPFPQKLKFREPQREERICLVTTNFQTKSMSSMVSDTSCTFPSGDGIFWKHWIQTKDGACGSPLVSTRDGFIVGIHSASNFTNTNNYFTSVPKNFMELLTNQEAQQWVSGWRLNADSVLWGGHKVFMVKPEEPFQPVKEATQL [Q151A], the “area with substrate DNLYFQS” value is 0.0597, the “area with substrate HNLYFQS” value was found to be 0.0557, the “area with substrate INLYFQS” value is 0.0507 and the “area with substrate KNLYFQS” value was 0.0666. Further, the “area with substrate LNLYFQS” value turned out to be 0.0586, the “area with substrate MNLYFQS” value came out at 0.0434, the “area with substrate NNLYFQS” value was determined as 0.06 and the “area with substrate PNLYFQS” value came to 0.0644. In addition, the “area with substrate TNLYFQS” value was found to be 0.0987.
MGESLFKGPRDYNPISSSICHLTNESDGHTTSLYGIGFGPFIITNKHLFRRNNGTLVVQSLHGVFKVKDTTTLQQHLVDGRDMIIIRMPKDFPPFPQKLKFREPQREERICLVTTNFQTKSMSSMVSDTSCTFPSGDGIFWKHWWQTKDGQCGSPLVSTRDGFIVGIHSASNFTNTNNYFTSVPKNFMELLTNQEAQQWVSGWRLNADSVLWGGHKVFMVKPEEPFQPVKEATQL [I145W]: the “area with substrate DNLYFQS” value came out at 0.0914, the “area with substrate FNLYFQS” value amounted to 0.0519, the “area with substrate HNLYFQS” value came to 0.058 and the “area with substrate KNLYFQS” value stood at 0.0542. The “area with substrate LNLYFQS” value was found to be 0.0462, the “area with substrate MNLYFQS” value was 0.0594, the “area with substrate NNLYFQS” value was 0.0516 and the “area with substrate PNLYFQS” value worked out at 0.0571. Besides, the “area with substrate RNLYFQS” value was found to be 0.0737, the “area with substrate WNLYFQS” value is 0.051 and the “area with substrate YNLYFQS” value turned out to be 0.0627.
Turning to MGESLFKGPRDYNPISSSICHLTNESDGHTTSLYGIGFGPFIITNKHLFRRNNGTLVVQSLHGVFKVKDTTTLQQHLVDGRDMIIIRMPKDFPPFPQKLKFREPQREERICLVTTNFQTKSMSSMVSDTSCTFPSGDGIFWKHWHQTKDGQCGSPLVSTRDGFIVGIHSASNFTNTNNYFTSVPKNFMELLTNQEAQQWVSGWRLNADSVLWGGHKVFMVKPEEPFQPVKEATQL [I145H], the “area with substrate DNLYFQS” value worked out at 0.0952, the “area with substrate HNLYFQS” value was 0.0609, the “area with substrate QNLYFQS” value is 0.0548 and the “area with substrate TNLYFQS” value was determined as 0.0576. Further, the “area with substrate VNLYFQS” value was determined as 0.0667, the “area with substrate WNLYFQS” value stood at 0.0644 and the “area with substrate YNLYFQS” value is 0.0686.
As for MGESLFKGPRDYNPISSSICHLTNESDGHTTSLYGIGFGPFIITNKHLFRRNNGTLVVQSLHGVFKVKDTTTLQQHLVDGRDMIIIRMPKDFPPFPQKLKFREPQREERICLVTTNFQTKSMSSMVSDTSCTFPSGDGIFWKHWIQLKDGQCGSPLVSTRDGFIVGIHSASNFTNTNNYFTSVPKNFMELLTNQEAQQWVSGWRLNADSVLWGGHKVFMVKPEEPFQPVKEATQL [T147L], the “area with substrate DNLYFQS” value was determined as 0.0521, the “area with substrate FNLYFQS” value was 0.0535, the “area with substrate HNLYFQS” value worked out at 0.0619 and the “area with substrate INLYFQS” value came to 0.0563. Also, the “area with substrate KNLYFQS” value is 0.0788, the “area with substrate NNLYFQS” value was 0.0522, the “area with substrate PNLYFQS” value is 0.0616 and the “area with substrate QNLYFQS” value amounted to 0.0554. Moreover, the “area with substrate RNLYFQS” value was determined as 0.0501, the “area with substrate TNLYFQS” value was determined as 0.0555, the “area with substrate WNLYFQS” value is 0.0577 and the “area with substrate YNLYFQS” value is 0.0525.
For the variant MGESLFKGPRDYNPISSSICHLTNESDGHTTSLYGIGFGPFIITNKHLFRRNNGTLVVQSLHGVFKVKDTTTLQQHLVDGRDMIIIRMPKDFPPFPQKLKFREPQREERICLVTTNFQTKSMSSMVSDTSCTFPSGDGIFWKTWIQTKDGQCGSPLVSTRDGFIVGIHSASNFTNTNNYFTSVPKNFMELLTNQEAQQWVSGWRLNADSVLWGGHKVFMVKPEEPFQPVKEATQL [H143T], the “area with substrate DNLYFQS” value worked out at 0.0724, the “area with substrate FNLYFQS” value was 0.0405, the “area with substrate GNLYFQS” value was 0.0615 and the “area with substrate HNLYFQS” value is 0.0571. Also, the “area with substrate INLYFQS” value is 0.0645, the “area with substrate KNLYFQS” value is 0.0705, the “area with substrate MNLYFQS” value was 0.0525 and the “area with substrate PNLYFQS” value amounted to 0.0712. Further, the “area with substrate RNLYFQS” value was 0.0705, the “area with substrate WNLYFQS” value worked out at 0.0663 and the “area with substrate YNLYFQS” value is 0.0546.
As for MGESLFKGPRDYNPISSSICHLTNESDGHTTSLYGIGFGPFIITNKHLFRRNNGTLVVQSLHGVFKVKDTTTLQQHLVDGRDMIIIRMPKDFPPFPQKLKFREPQREERICLVTTNFQTKSMSSMVSDTSCTFPSGDGIFWKIWIQTKDGQCGSPLVSTRDGFIVGIHSASNFTNTNNYFTSVPKNFMELLTNQEAQQWVSGWRLNADSVLWGGHKVFMVKPEEPFQPVKEATQL [H143I], the “area with substrate DNLYFQS” value was determined as 0.0854, the “area with substrate GNLYFQS” value turned out to be 0.0661, the “area with substrate KNLYFQS” value worked out at 0.0737 and the “area with substrate LNLYFQS” value amounted to 0.0518. Moreover, the “area with substrate RNLYFQS” value turned out to be 0.0581, the “area with substrate SNLYFQS” value was 0.0689 and the “area with substrate YNLYFQS” value is 0.0591.
As for MGESLFKGPRDYNPISSSICHLTNESDGHTTSLYGIGFGPFIITNKHLFRRNNGTLVVQSLHGVFKVKDTTTLQQHLVDGRDMIIIRMPKDFPPFPQKLKFREPQREERICLVTTNFQTKSMSSMVSDTSCTFPSGDGIFWKHWIQTKCGQCGSPLVSTRDGFIVGIHSASNFTNTNNYFTSVPKNFMELLTNQEAQQWVSGWRLNADSVLWGGHKVFMVKPEEPFQPVKEATQL [D149C], the “area with substrate DNLYFQS” value was 0.0385, the “area with substrate FNLYFQS” value is 0.0471, the “area with substrate GNLYFQS” value stood at 0.0636 and the “area with substrate HNLYFQS” value worked out at 0.0422. In addition, the “area with substrate LNLYFQS” value was 0.0695 and the “area with substrate WNLYFQS” value is 0.0745.
Consider MGESLFKGPRDYNPISSSICHLTNESDGHTTSLYGIGFGPFIITNKHLFRRNNGTLVVQSLHGVFKVKDTTTLQQHLVDGRDMIIIRMPKDFPPFPQKLKFREPQREERICLVTTNFQTKSMSSMVSDTSCTFPSGDGIFWCHWIQTKDGQCGSPLVSTRDGFIVGIHSASNFTNTNNYFTSVPKNFMELLTNQEAQQWVSGWRLNADSVLWGGHKVFMVKPEEPFQPVKEATQL [K142C], for which the “area with substrate DNLYFQS” value is 0.127, the “area with substrate FNLYFQS” value was found to be 0.0627, the “area with substrate GNLYFQS” value worked out at 0.0646 and the “area with substrate HNLYFQS” value stood at 0.0686. The “area with substrate INLYFQS” value turned out to be 0.0679, the “area with substrate KNLYFQS” value turned out to be 0.0794, the “area with substrate MNLYFQS” value was determined as 0.0105 and the “area with substrate PNLYFQS” value came out at 0.091. Further, the “area with substrate TNLYFQS” value worked out at 0.0744, the “area with substrate VNLYFQS” value was 0.0727, the “area with substrate WNLYFQS” value turned out to be 0.0938 and the “area with substrate YNLYFQS” value turned out to be 0.0649.
With MGESLFKGPRDYNPISSSICHLTNESDGHTTSLYGIGFGPFIITNKHLFRRNNGTLVVQSLHGVFKVKDTTTLQQHLVDGRDMIIIRMPKDFPPFPQKLKFREPQREERICLVTTNFQTKSMSSMVSDTSCTFPSGDGIFWVHWIQTKDGQCGSPLVSTRDGFIVGIHSASNFTNTNNYFTSVPKNFMELLTNQEAQQWVSGWRLNADSVLWGGHKVFMVKPEEPFQPVKEATQL [K142V], the “area with substrate DNLYFQS” value amounted to 0.0693, the “area with substrate GNLYFQS” value amounted to 0.0751, the “area with substrate HNLYFQS” value turned out to be 0.0691 and the “area with substrate LNLYFQS” value stood at 0.0637. Also, the “area with substrate PNLYFQS” value turned out to be 0.0831, the “area with substrate RNLYFQS” value amounted to 0.0579, the “area with substrate TNLYFQS” value was found to be 0.0685 and the “area with substrate WNLYFQS” value was found to be 0.064. The “area with substrate YNLYFQS” value came to 0.073.
With MGESLFKGPRDYNPISSSICHLTNESDGHTTSLYGIGFGPFIITNKHLFRRNNGTLVVQSLHGVFKVKDTTTLQQHLVDGRDMIIIRMPKDFPPFPQKLKFREPQREERICLVTTNFQTKSMSSMVSDTSCTFPSGDGIFYKHWIQTKDGQCGSPLVSTRDGFIVGIHSASNFTNTNNYFTSVPKNFMELLTNQEAQQWVSGWRLNADSVLWGGHKVFMVKPEEPFQPVKEATQL [W141Y], the “area with substrate DNLYFQS” value was 0.0528, the “area with substrate FNLYFQS” value amounted to 0.0474, the “area with substrate GNLYFQS” value came out at 0.0572 and the “area with substrate HNLYFQS” value was determined as 0.0664. For the same variant, the “area with substrate INLYFQS” value was 0.0629, the “area with substrate MNLYFQS” value was determined as 0.0826, the “area with substrate NNLYFQS” value came to 0.0625 and the “area with substrate PNLYFQS” value was 0.0544. The “area with substrate TNLYFQS” value amounted to 0.0501.
